Reference: the supplement of paper PMC8728848
The other results are listed elsewhere or left out.

Experiments:
Test in all cases: glycan array binding signal (z-score within array); higher = stronger binding
Conditions in all cases: glycan notation: IUPAC condensed, linker removed
[1] = target: Gal(a1-3)[Gal(a1-4)]Gal(b1-4)GlcNAc
Summary of the method: (§1)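 Glycan array data were curated from 3228 arrays in the Consortium for Functional Glycomics database and kept only where the protein sequence was available. Glycan names were converted to IUPAC-condensed notation, and columns mapping to the same glycan were averaged. The binding signal is a within-array Z-score, averaged across arrays of the same protein sequence at different concentrations or buffers and across linkers. Negative Z-scores can be read as non-binding.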

[2] = target: Gal(a1-4)Gal(b1-3)GlcNAc(b1-2)Man(a1-3)[Gal(a1-4)Gal(b1-3)GlcNAc(b1-2)Man(a1-6)]Man(b1-4)GlcNAc(b1-4)GlcNAc
Summary of the method: as §1

[3] = target: Gal(a1-4)Gal(b1-4)Glc
Summary of the method: as §1

[4] = target: Gal(a1-4)Gal(b1-4)GlcNAc
Summary of the method: as §1

[5] = target: Gal(a1-4)Gal(b1-4)GlcNAc(b1-2)Man(a1-3)[Gal(a1-4)Gal(b1-4)GlcNAc(b1-2)Man(a1-6)]Man(b1-4)GlcNAc(b1-4)GlcNAc
Summary of the method: as §1

[6] = target: Gal(a1-4)Gal(b1-4)GlcNAc(b1-3)Gal(b1-4)Glc
Summary of the method: as §1

[7] = target: Gal(a1-4)GlcNAc
Summary of the method: as §1

[8] = target: Gal(a1-6)Glc
Summary of the method: as §1

[9] = target: Gal(b1-2)Gal
Summary of the method: as §1

[10] = target: Gal(b1-3)Gal
Summary of the method: as §1

[11] = target: Gal(b1-3)Gal(b1-4)GlcNAc
Summary of the method: as §1

[12] = target: Gal(b1-3)GalNAc
Summary of the method: as §1

[13] = target: Gal(b1-3)GalNAc(a1-3)[Fuc(a1-2)]Gal(b1-4)Glc
Summary of the method: as §1

[14] = target: Gal(b1-3)GalNAc(a1-3)[Fuc(a1-2)]Gal(b1-4)GlcNAc
Summary of the method: as §1

[15] = target: Gal(b1-3)GalNAc(b1-3)Gal
Summary of the method: as §1

[16] = target: Gal(b1-3)GalNAc(b1-3)Gal(a1-4)Gal(b1-4)Glc
Summary of the method: as §1

[17] = target: Gal(b1-3)GalNAc(b1-4)Gal(b1-4)Glc
Summary of the method: as §1

[18] = target: Gal(b1-3)GalNAc(b1-4)[Neu5Ac(a2-3)]Gal(b1-4)Glc
Summary of the method: as §1

[19] = target: Gal(b1-3)GlcNAc
Summary of the method: as §1

[20] = target: Gal(b1-3)GlcNAc(a1-3)Gal(b1-4)GlcNAc
Summary of the method: as §1

[21] = target: Gal(b1-3)GlcNAc(a1-6)Gal(b1-4)GlcNAc
Summary of the method: as §1

[22] = target: Gal(b1-3)GlcNAc(b1-2)Man
Summary of the method: as §1

[23] = target: Gal(b1-3)GlcNAc(b1-2)Man(a1-3)[Gal(b1-3)GlcNAc(b1-2)Man(a1-6)]Man(b1-4)GlcNAc(b1-4)GlcNAc
Summary of the method: as §1

[24] = target: Gal(b1-3)GlcNAc(b1-2)Man(a1-3)[Gal(b1-3)GlcNAc(b1-2)Man(a1-6)]Man(b1-4)GlcNAc(b1-4)[Fuc(a1-6)]GlcNAc
Summary of the method: as §1

[25] = target: Gal(b1-3)GlcNAc(b1-2)Man(a1-3)[GlcNAc(b1-4)][Gal(b1-3)GlcNAc(b1-2)Man(a1-6)]Man(b1-4)GlcNAc(b1-4)GlcNAc
Summary of the method: as §1

[26] = target: Gal(b1-3)GlcNAc(b1-2)[Gal(b1-3)GlcNAc(b1-6)]Man(a1-6)[Gal(b1-3)GlcNAc(b1-2)Man(a1-3)]Man(b1-4)GlcNAc(b1-4)GlcNAc
Summary of the method: as §1

[27] = target: Gal(b1-3)GlcNAc(b1-3)Gal(b1-3)GlcNAc
Summary of the method: as §1

[28] = target: Gal(b1-3)GlcNAc(b1-3)Gal(b1-4)Glc
Summary of the method: as §1

[29] = target: Gal(b1-3)GlcNAc(b1-3)Gal(b1-4)GlcNAc
Summary of the method: as §1

[30] = target: Gal(b1-3)GlcNAc(b1-3)Gal(b1-4)GlcNAc(b1-2)Man(a1-3)[Gal(b1-3)GlcNAc(b1-3)Gal(b1-4)GlcNAc(b1-2)Man(a1-6)]Man(b1-4)GlcNAc(b1-4)GlcNAc
Summary of the method: as §1

[31] = target: Gal(b1-3)GlcNAc(b1-3)Gal(b1-4)GlcNAc(b1-2)[Gal(b1-3)GlcNAc(b1-3)Gal(b1-4)GlcNAc(b1-6)]Man(a1-6)[Gal(b1-3)GlcNAc(b1-3)Gal(b1-4)GlcNAc(b1-2)Man(a1-3)]Man(b1-4)GlcNAc(b1-4)[Fuc(a1-6)]GlcNAc
Summary of the method: as §1

[32] = target: Gal(b1-3)GlcNAc(b1-3)Gal(b1-4)GlcNAc(b1-3)Gal(b1-4)GlcNAc(b1-2)[Gal(b1-3)GlcNAc(b1-3)Gal(b1-4)GlcNAc(b1-3)Gal(b1-4)GlcNAc(b1-6)]Man(a1-6)[Gal(b1-3)GlcNAc(b1-3)Gal(b1-4)GlcNAc(b1-3)Gal(b1-4)GlcNAc(b1-2)Man(a1-3)]Man(b1-4)GlcNAc(b1-4)[Fuc(a1-6)]GlcNAc
Summary of the method: as §1

[33] = target: Gal(b1-3)GlcNAc(b1-3)Gal(b1-4)GlcNAc(b1-6)[Gal(b1-3)GlcNAc(b1-3)]Gal(b1-4)Glc
Summary of the method: as §1

[34] = target: Gal(b1-3)GlcNAc(b1-3)Gal(b1-4)[Fuc(a1-3)]GlcNAc
Summary of the method: as §1

[35] = target: Gal(b1-3)GlcNAc(b1-3)Gal(b1-4)[Fuc(a1-3)]GlcNAc(b1-6)[Gal(b1-3)GlcNAc(b1-3)]Gal(b1-4)Glc
Summary of the method: as §1

[36] = target: Gal(b1-3)GlcNAc(b1-3)GalNAc
Summary of the method: as §1

[37] = target: Gal(b1-3)GlcNAc(b1-6)Gal(b1-4)GlcNAc
Summary of the method: as §1

[38] = target: Gal(b1-3)GlcNAc(b1-6)GalNAc
Summary of the method: as §1

B1: PX9961U-pdi-543-24-543 (Parabacteroides distasonis) (protein)
chain: EEPVGEFLPGQVESEENIEGIVTGAYAVLDGYYASDAINSGCSNWQFGDVVSDDAYKGGGGTGDQNQIHLMEIFNANPTGIDFEARWAALYEGIKRCNQAIRLLNGSEVKNKEQRLAEMRFLRGHYYFNLKIIYNQIPWIDETLVDPNEYNKKSNIEFSSDQLWEKILEEFSAAYKVLPESQADYGRPTKMAARAYMAKVYLYQSKWKECLEACDEVIQSGKYELFPDFRNVFLPENDNCSEIIFAIQLSINDGSPNNENGSYGDRLLPPGGPYPVYGFLRPTQNLVNAYKTDVKGLPYNDGKDVSENDYVDVRLDHTLARPNIPFMDVQLYDWTPREASVYGPYSPKKRLVSLNSTYYSPIWPYVNALNFYVIRYADLLLWRAEAAIETGDLETGRKYINMIRERAKNTQHVKTMDQSQDAANYKVGVYDEPFKSKNEAVQALRMERRLEMAHEGIRFFDLVRWGVADEVINAYIAKEKVFRSHLQNAHFVKGKHEYFPIPQSMIDICGTEVMKQNPGY
- glycan array binding signal (z-score) [1]: 1.66
- glycan array binding signal (z-score) [2]: -0.428
- glycan array binding signal (z-score) [3]: 0.133
- glycan array binding signal (z-score) [4]: -0.447
- glycan array binding signal (z-score) [5]: 2.13
- glycan array binding signal (z-score) [6]: -0.389
- glycan array binding signal (z-score) [7]: -0.38
- glycan array binding signal (z-score) [8]: -0.376
- glycan array binding signal (z-score) [9]: -0.373
- glycan array binding signal (z-score) [10]: -0.366
- glycan array binding signal (z-score) [11]: 0.377
- glycan array binding signal (z-score) [12]: -0.28
- glycan array binding signal (z-score) [13]: -0.432
- glycan array binding signal (z-score) [14]: -0.355
- glycan array binding signal (z-score) [15]: -0.358
- glycan array binding signal (z-score) [16]: -0.31
- glycan array binding signal (z-score) [17]: -0.437
- glycan array binding signal (z-score) [18]: -0.458
- glycan array binding signal (z-score) [19]: -0.43
- glycan array binding signal (z-score) [20]: 0.365
- glycan array binding signal (z-score) [21]: -0.246
- glycan array binding signal (z-score) [22]: 2.87
- glycan array binding signal (z-score) [23]: 0.959
- glycan array binding signal (z-score) [24]: 1.32
- glycan array binding signal (z-score) [25]: 0.701
- glycan array binding signal (z-score) [26]: 0.893
- glycan array binding signal (z-score) [27]: 0.07
- glycan array binding signal (z-score) [28]: -0.4
- glycan array binding signal (z-score) [29]: -0.488
- glycan array binding signal (z-score) [30]: 0.719
- glycan array binding signal (z-score) [31]: 2.71
- glycan array binding signal (z-score) [32]: 4.42
- glycan array binding signal (z-score) [33]: 1.54
- glycan array binding signal (z-score) [34]: -0.399
- glycan array binding signal (z-score) [35]: -0.346
- glycan array binding signal (z-score) [36]: -0.385
- glycan array binding signal (z-score) [37]: -0.307
- glycan array binding signal (z-score) [38]: 0.603
